Measured values: a compilation of properties of binary mixtures (doi:10.1007/s10953-019-00842-w)
Some of these densities may be calculated back from excess volumes.

Assay: xn = mol fraction of the nth substance listed
Details: 101 kPa

CC[n+]1ccn(C)c1.O=S(=O)([O-])C(F)(F)F + CC1COC(=O)O1
mass density [kg/m3]
Details	x1 = 0.0999	x1 = 0.1999	x1 = 0.3005	x1 = 0.3998	x1 = 0.5001	x1 = 0.601	x1 = 0.6987	x1 = 0.8004	x1 = 0.8998	x1 = 1
288.15 K	1250.6	1281.7	–	–	–	1359.1	1369.9	1379.1	1386.3	1391.2
293.15 K	–	1276.8	1303.3	1323.4	1341.1	1354.5	1365.5	–	1382.1	1387.1
298.15 K	1240.4	1271.8	1298.5	1318.2	1336.5	1350	1361	–	–	–
303.15 K	–	1266.9	1293.7	–	1331.9	1345.5	–	1366	1373.7	–
308.15 K	1230.2	1262	1288.9	1309.1	–	1341	1352.2	1361.7	1369.5	1374.5
313.15 K	1225.2	1257.1	1284.1	1304.3	1322.7	1336.6	1347.8	1357.4	–	–
318.15 K	1220.1	–	–	–	–	1332.1	1343.4	1353.1	–	1366.1
323.15 K	1215.1	1247.3	1274.6	1294.9	1313.7	1327.7	–	1348.8	–	1362
328.15 K	1210	–	–	–	–	–	1334.7	1344.6	1352.8	1357.9
333.15 K	1205	1237.6	–	1285.5	1304.7	1318.9	–	–	1348.6	1353.7
338.15 K	1200	1232.8	1260.5	1280.8	1300.2	–	1326.1	–	1344.6	1349.6
343.15 K	–	1228	1255.9	–	1295.8	1310.3	1321.8	1331.9	1340.6	1345.6
348.15 K	1190	1223.2	1251.2	1273.7	1291.3	1306.2	1317.6	1327.7	1336.1	1341.5
353.15 K	1185	1218.3	–	1269.1	1286.9	1301.5	1313.3	1323.5	–	–

CC1COC(=O)O1 (stereo not given) + CC[n+]1ccn(C)c1.O=S(=O)([O-])C(F)(F)F
x2 = 0
Details	mass density [kg/m3]
288.15 K	1210.2
298.15 K	1199.1
303.15 K	1194
308.15 K	1188.6
313.15 K	1183.4
318.15 K	1177.9
323.15 K	1172.6
328.15 K	1167.4
333.15 K	1162.1
338.15 K	1156.8
348.15 K	1146.2
353.15 K	1141
